Sequences and labels used below:
B1: chr8:121473430:121473431:+_ENSG00000172167_ENST00000305949|hu_hu|motif|central (ssRNA)
RNA: GGGAGUUCUACAGUCCGACGAUCAAUAUCCGACAUAUAGCAGGAGGGUAGAUCUGAUAAUUUUAUCAUCUGCACAAAUUCGGAAGCAGGGCCAUAAUAAUGGAAAACCUUUGGCAAAAUAUUCUUAUCCUUUGAUGGUAUGAUCAACAGAGGAUUGAGCAUCA
B2: chr3:138289918:138289919:-_ENSG00000114107_ENST00000484888|hu_mus|FALSE|FALSE (ssRNA)
RNA: GGGAGUUCUACAGUCCGACGAUCGUGUGCCGCUCGGUUCUGUUCUAGCUGAAGUUCACUUUUCAGUUGCUGGUUGGUCUCUAUGAGCUCCCGUAUCAUGCUCUGCUGACGUGUUGUUUCUUCCAUCAACGUUUUCAAAAUCUGCAACAGAGGAUUGAGCAUCA
B3: chr1:52222005:52222006:-_ENSMUSG00000026103_ENSMUST00000114513|mus_hu|FALSE|FALSE (ssRNA)
RNA: GGGAGUUCUACAGUCCGACGAUCACAAUAGAAAAAUCACAAGAAAUCUGGAAUGAUCCAGUGGUCCCCCAAGGAGGACAAAUCUCUUGAUGCAGACUCUUAAUGACAGGCUUGGAAACAAAUGUUUGUUAGUUGUAGCAGUUCCAACAGAGGAUUGAGCAUCA
B4: chr1:32384726:32384727:-_ENSG00000184007_ENST00000602725|perfect_dup|motif|central (ssRNA)
RNA: GGGAGUUCUACAGUCCGACGAUCAGGAGGAAAUCAAUAAAUCUUGAAAUGUUCCGCAGCAGAAAACAUUAAAAAGACCACGGAAAUGCCUAUUAUUGAUCACUAUUUUCUCUAUUCAACUUGCUUGUUCCUUAGGAAGCUUCUCAACAGAGGAUUGAGCAUCA
B5: chr6:47494509:47494510:-_ENSMUSG00000029687_ENSMUST00000081721|mus_mus|FALSE|FALSE (ssRNA)
RNA: GGGAGUUCUACAGUCCGACGAUCCCCAAUUAGCCUAGCAAUGGCACAAAAGUUAUCGUAGUAAGUACCAAUGAGGACUCUAAACAUGGAGGCUUCAGCACCACUCCACUCCACAUUCUCAGGAGGUUCAAUAUUUGGCUUCAUCAACAGAGGAUUGAGCAUCA
B6: chr4:129192164:129192165:+_ENSMUSG00000047945_ENSMUST00000062356|mus_mus|FALSE|FALSE (ssRNA)
RNA: GGGAGUUCUACAGUCCGACGAUCGGAAUCACCCCCACCCUCCUUCCGAUUUCUCUUGAAGGACAGGCCACUCAAUUUGAAAGGCUUCUUGAAAGAGAAUUUCUUCUUCUUCUUGGGGGUCUCCUUGGGGGCGACCUCCCCCUUCAACAGAGGAUUGAGCAUCA
B7: chr6:38652254:38652255:-_ENSG00000124767_ENST00000373365|hu_hu|hu_hu_hu_mus_False|78_98 (ssRNA)
RNA: GGGAGUUCUACAGUCCGACGAUCCGAGAACUUCAUAAUGGGAAAAUCAAGCUUCUGGAUUAGCGUCAGUCCAAGAACCCUCGUAUAAAAAUCCAGGGACUUCUUAGGAUCCUUAAUUCUUAGCAUCGUUUGCUGCAGUAGAAACAACAGAGGAUUGAGCAUCA
B8: chr19:60011576:60011577:-_ENSMUSG00000040022_ENSMUST00000171986|mus_hu|motif|central (ssRNA)
RNA: GGGAGUUCUACAGUCCGACGAUCUUUUGCUGUAAAUGGAUUGGUUGACUCAUAAUCAAAAUAGUCCUGGCGAUUUUCACGGAAUGCAUUAGGUGAUUUCAAGUCACAAGGGCUAUCAGAUCCCCCAUUGUUAAGUUUAUCAGACAACAGAGGAUUGAGCAUCA
B9: chr7:878492:878493:+_ENSG00000164828_ENST00000456758|hu_mus|FALSE|FALSE (ssRNA)
RNA: GGGAGUUCUACAGUCCGACGAUCCGAAUCAAUAGCCUGGCUGUCCCCACUGCUGUACGAAGCUGUUGUGACCAGACGCAAGCUGCGGCGGGACAUCCUUGGAGAGUCAAAUACAGGUUCCAACUUGUGCUCAGUUUCAAAAUCCAACAGAGGAUUGAGCAUCA
B10: 27889102_27889222_2550_3pUTR_ENSMUSG00000056692_ENSMUST00000114859|mouse|control|control (ssRNA)
RNA: GGGAGUUCUACAGUCCGACGAUCUCUGGAGACAAGCAGCUCCGAGGCCAGAAGCAGGAAGAAUGGCUGGGCAUGCAUGUGCUCUAGGGUGGCAGCGUCCUCAGAGACUGGCCCCAAGAAGGUCCUCAGACAAAAGCCCCCUGACAACAGAGGAUUGAGCAUCA
B11: chr5:145543945:145543946:-_ENSG00000133706_ENST00000545646|hu_hu|hu_hu_hu_mus_True|18_108 (ssRNA)
RNA: GGGAGUUCUACAGUCCGACGAUCCUGAAUAGCCAGUGGUGGGAAAUAAUCAAGCCAGUGCUCUGCUUCAGAAAACUUCACUAUGUCGUCAUCAGAGAGCCCAAGGGAUUUCAUAAUGCCCCACUGGUACUUAGAAGAUCCUGCCAACAGAGGAUUGAGCAUCA
B12: chr1:94943820:94943821:+_ENSG00000117528_ENST00000370214|hu_hu|motif|central (ssRNA)
RNA: GGGAGUUCUACAGUCCGACGAUCCGCUGGGCCCUGAGCUCCAAUUGCACUCGUUAACUUAAAGAUAUACAAAACGGUGUCGGAAAAUGGCUUACUAAGAUUUGAAUACAGAUCGACUACACUGUUACAAAAUUUUUCUACAUCCAACAGAGGAUUGAGCAUCA
B13: chr2:60072280:60072281:+_ENSMUSG00000026977_ENSMUST00000102748|mus_hu|FALSE|FALSE (ssRNA)
RNA: GGGAGUUCUACAGUCCGACGAUCUCUUCGUGAAAAAAAAGUAGAUGACAUGCUAGAAGCUAUGCGUGACAGCAAUCUCCUCGUUGUCCGCCUACCUUCAUUGUCAGAAGAUUCUUGAAAUGGUCUUUGAGAUGAAACAACCCUCAACAGAGGAUUGAGCAUCA
B14: chr7:44244176:44244177:+_ENSG00000106636_ENST00000223369|hu_mus|hu_hu_hu_mus_False|1_48 (ssRNA)
RNA: GGGAGUUCUACAGUCCGACGAUCACUGUCGCUCCGGACGUAGACAUGGCAAAGAUACUCUUGUUCUUUGACAGAAGCUCUGCUGCCUUUCGAUGAGCGUUCCACAAUCAGUUGACUUGUAAAGGUCAUGAAUUCCUGAACGCUCAACAGAGGAUUGAGCAUCA
B15: 171546587_171546707_2472_CDS_ENSG00000117523_ENST00000495585|human|control|control (ssRNA)
RNA: GGGAGUUCUACAGUCCGACGAUCUUAACUGUGAAAAAUGACUUGCAGAAGGCAGGCUGCUUGUCUGUAACUGCUGAGGUUUCACUUUACAAAUAUUUGGAGGGUCCGAUGUGGUUGUAGAUUUUGUGCUCAAAGAAGAGGUAGCAACAGAGGAUUGAGCAUCA
B16: chr4:88366126:88366127:-_ENSMUSG00000070923_ENSMUST00000094993|mus_mus|FALSE|FALSE (ssRNA)
RNA: GGGAGUUCUACAGUCCGACGAUCUGCUGAAAGAGGUGAUUCUCUAGAAGGUGACCCAGGGUUUUCUUCAGGUGGAAAAACUGUGAGAGUGCAAGCCCGAAUGCCACCCAGCGACUCAGGAAGAUCAAAAACUUUAUGCCACUCCAACAGAGGAUUGAGCAUCA
B17: chr4:81121375:81121376:+_ENSG00000152784_ENST00000415738|hu_mus|FALSE|FALSE (ssRNA)
RNA: GGGAGUUCUACAGUCCGACGAUCUACCCGGAAGAUGUAAGGUACUGUUCUCUUGUCCGUGGACUUGAGGGCUACGAAGGCUAUGCUGUCAUACAGGGAAGUAUGGCUCAGUACACAGGGACCGAAUAUGGCGUUCUCUGGGAUCAACAGAGGAUUGAGCAUCA
B18: 88157618_88157738_1641_3pUTR_ENSMUSG00000069769_ENSMUST00000107909|mouse|control|control (ssRNA)
RNA: GGGAGUUCUACAGUCCGACGAUCUGUGUGCUAAAGUCCCAGAUGAAAAGUCUUACAGUCUCAGAACUGGUACCAAAAAUGGAGAGUAACAUCACCAUCUCAGCAUCCUUUAAAAGCGAGAACAGAAUCAAAACAAAACAAAAACAACAGAGGAUUGAGCAUCA
B19: chr8:61654917:61654918:+_ENSG00000171316_ENST00000423902|hu_mus|motif|central (ssRNA)
RNA: GGGAGUUCUACAGUCCGACGAUCAUUCAUUGGAGUACUGUUUGUAAGGCCUAAAUUUUGAUUCAUCCCUGUACUGUUAACGGAUCCCUGAUUUAGGUUACUGUAAGGAUAUCGAGAAUACUGCCCUGAGUUGUUUACAGUAGGCAACAGAGGAUUGAGCAUCA
B20: chr5:133537698:133537699:-_ENSG00000113575_ENST00000481195|hu_hu|FALSE|FALSE (ssRNA)
RNA: GGGAGUUCUACAGUCCGACGAUCGCUCUCAUGAUUCCCUCGAAGAAUGGUGAUGCGUUCACGGUAACGAACCUUAAGAGCUACAAGCAGUGUAACUGUUUCAACUGAAUAAUAUCCUCUGUCAACAUAAUCUCCCAUAAACAACAACAGAGGAUUGAGCAUCA
B21: chr3:179287964:179287965:+_ENSG00000136518_ENST00000429709|hu_hu|hu_hu_hu_mus_True|18_38 (ssRNA)
RNA: GGGAGUUCUACAGUCCGACGAUCCUUGAGUGGUGAGAUGGCCUCCAUGUUCUCCCUGGGCACGCGGAGGGCAUUGGUGUCUAUGUAGUAGGUGGGCCCGCCUUGUUUGCCUUUGUCGCCAUCUAUUUCCAUCAUUGUACUUCCCAACAGAGGAUUGAGCAUCA
B22: 130672799_130674977_855_CDS_ENSG00000017260_ENST00000359644|human|control|control (ssRNA)
RNA: GGGAGUUCUACAGUCCGACGAUCCAUGCUCUUCUGCAGAGGGGUUUUUGGUGCCUCUUCUGCUUGCAUCAUUUUAAAAACCUCCCCAAAUUCAGAAUUUUCUCCUGUUCCAAUGACAACACCCUUUGCUUUGCCACAUCUGACCAACAGAGGAUUGAGCAUCA

The list shows a part of the results.

This test addresses T1, UNK ZnF1-3 (human, UniProt Q9C0B0 31-174).
T1 sequence: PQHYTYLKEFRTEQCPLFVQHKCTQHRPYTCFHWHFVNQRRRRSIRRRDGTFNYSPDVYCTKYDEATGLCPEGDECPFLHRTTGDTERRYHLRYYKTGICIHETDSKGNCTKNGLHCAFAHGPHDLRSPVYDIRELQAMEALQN
In words: nsRBNS (natural sequence RNA bind-n-seq); RBNS binding buffer (assumed for nsRBNS): 25 mM Tris pH 7.5, 150 mM KCl, 3 mM MgCl2, 0.01% Triton X-100, 500 ug/ml BSA, 20 U/ml SUPERase-In, 4 C; UNK is unkempt and MSI1 is Musashi-1; names of the RNAs are library labels; protein concentration not given here; high values mean tight binding.
B1: the binding signal came to 1.32 enrichment R.
Molecule B2 showed a binding signal of 0.338 enrichment R.
The result for B3 reads 1.08 enrichment R.
As for B4, the binding signal is 1.03 enrichment R.
Molecule B5 registered a binding signal of 1.52 enrichment R.
In the case of B6 it was 0.663 enrichment R.
Regarding B7, the binding signal stood at 1.21 enrichment R.
Consider B8, for which the binding signal was determined as 0.751 enrichment R.
In the case of B9 it was 0.648 enrichment R; in that of B10, 1.15 enrichment R; in that of B11, 0.843 enrichment R.
For the molecule B12, the binding signal is 1.37 enrichment R.
The result for B13 reads 0.755 enrichment R; that for B14, 0.403 enrichment R; that for B15, 1.11 enrichment R.
In the case of B16 it was 1.63 enrichment R; in that of B17, 0.999 enrichment R.
In the case of B18 it was 2.36 enrichment R; in that of B19, 0.623 enrichment R.
The molecule B20 yielded a binding signal of 1.09 enrichment R.
Molecule B21 displayed a binding signal of 0.585 enrichment R.
The result for B22 reads 0.738 enrichment R.

(Values after PMC12136788.)
